PMC12136788
The list shows a part of the results.

B1: chr3:9371215:9371332:+|CDS|ENSG00000134077|unk|total|mutant (ssRNA)
RNA: GGGAGUUCUACAGUCCGACGAUCUGGACAAGAAGUCAAAAUCGAUCAGAGAAAUGUUAAAAAAGAGUUCACCCGCCAUGCUUCCGAUUCUCAUAUCUCCGAUUAUUAUGAAAAUCCAGCCAUCAAAGAGGAUGUAUCAACAUUCAACAGAGGAUUGAGCAUCA
B2: ENSG00000198589:be:win_3401|CDS|ENSG00000198589|bound_else_gene|NA|bound_elsewhere_windowed (ssRNA)
RNA: GGGAGUUCUACAGUCCGACGAUCUGUCUCCAGCUGCAUCUGAAGCCGGUGAAAAACUGGACAUGUUUGGUAAUGAUGACAAAUUAAUAUUUCAAGAAGGAAAACCUGUUACUGAAAAGCAAACUGAUACUGAAACUCAAGAUUCAACAGAGGAUUGAGCAUCA
B3: chr7:76302746:76302847:+|CDS|ENSG00000106211|unk|total|mutant (ssRNA)
RNA: GGGAGUUCUACAGUCCGACGAUCGUCCCCUUCUCGCUCCUGCGGGGCCCCAGCUGGGACCCCUUCCGCGACUGGUACCCGCACCGCCGCCUCUUCGACCAGGCCUUCGGGCUGCCCCGGCUGCCGGAGGAGUGGUCGCAGUGGCAACAGAGGAUUGAGCAUCA
B4: chr3:58172026:58172127:+|3pUTR|ENSG00000136068|msi1|total|mutant (ssRNA)
RNA: GGGAGUUCUACAGUCCGACGAUCGGCAGACCUUCCGGUUUUGCUGCUCCGUCCUGAGGAAGUGGCCACUCUUGUGGCAGGUGCCGUAUCUGGGGCGAGUGUUGGGGGUAAAAGCCCACCCUACAGAAAGUGGAACAGCCCGGACAACAGAGGAUUGAGCAUCA
B5: chr8:116846039:116846140:-|3pUTR|ENSG00000164754|msi1|total|mutant (ssRNA)
RNA: GGGAGUUCUACAGUCCGACGAUCACAUUCAAUAUGAUGUGCCUGUAAACCAAGGAGUUUUCCCCGUUUGUAAAAAGACAUUGCCGAUAAUUGAAUGUUUGAUUUCCGAAAGGUCAUCCGUUUCUUGUUACACAUUUUGUCCGUCAACAGAGGAUUGAGCAUCA
B6: chr3:21421216:21421447:-|CDS|ENSG00000151789|control|control|control (ssRNA)
RNA: GGGAGUUCUACAGUCCGACGAUCAUUAGUAUUUUCAAAAGAACCUUCAAAGCCAUUGGCUCCACGAAUUCUACCAAAUCCUCUAGCAGCUGCAGCAGCCGCAGCAGCAGUGGCAGUGAGUUCCCCCUUCAGUCUUCGAACUGCCAACAGAGGAUUGAGCAUCA

target: MSI1 full-length (mouse, UniProt Q61474 1-362); assay: nsRBNS (natural sequence RNA bind-n-seq); RBNS binding buffer (assumed for nsRBNS): 25 mM Tris pH 7.5, 150 mM KCl, 3 mM MgCl2, 0.01% Triton X-100, 500 ug/ml BSA, 20 U/ml SUPERase-In, 4 C; UNK is unkempt and MSI1 is Musashi-1; names of the RNAs are library labels; protein concentration not given here; high values mean tight binding
UniProt Q61474, sequence (Q61474 whole entry): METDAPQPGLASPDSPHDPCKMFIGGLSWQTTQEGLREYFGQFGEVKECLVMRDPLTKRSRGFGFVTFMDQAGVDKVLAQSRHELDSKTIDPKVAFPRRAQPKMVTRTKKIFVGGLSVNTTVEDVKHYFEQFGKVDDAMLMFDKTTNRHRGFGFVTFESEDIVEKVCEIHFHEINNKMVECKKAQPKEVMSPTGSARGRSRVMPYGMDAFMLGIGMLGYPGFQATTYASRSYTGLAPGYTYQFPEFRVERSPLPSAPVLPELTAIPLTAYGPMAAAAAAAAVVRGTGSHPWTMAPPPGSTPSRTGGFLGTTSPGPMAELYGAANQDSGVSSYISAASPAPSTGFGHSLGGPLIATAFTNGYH

Binder | binding signal [enrichment R]
B1 | 0.231
B2 | 0.199
B3 | 0.673
B4 | 0.42
B5 | 0.216
B6 | 0.901
